Assay in all cases: NCI-60 one-dose screen, 48 h (100 = growth as untreated, 0 = no growth, -100 = all killed)
For test [1], the system named is SNB-75 CNS. The settings on record: 2.5 mM; runs of 2000.
The subject of test [2] is SNB-19 CNS. The settings on record: 2.5 mM.
Test [3] deals with U251 CNS. The following applies: 2.5 mM.

We go through one molecule from PubChem BioAssay (NCI).

SMILES strings stand for the structures. Some structures have more than one record in an assay (separate samples or runs), and their calls can disagree.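 Cells were grown in 96-well plates and exposed to the test compound at a single concentration for 48 hours; results are reported as percent growth, with values below 10 considered active.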 The source holds more than one record for some entries. They are shown here; other results are not. The source may hold further records. This drug was run again and again over the years, at its own concentration, as given; one value stands for one run. Marks such as (2×) say how often a value occurs here.

On to `O=c1[nH]cc(F)c(=O)[nH]1`, for which the growth entry was “active: -1.28, -39.2, 4, -27.1%” in test [1]; “inactive: 26.4, 35.2, 40.9, 34.1, 32.1, 41.4, 38.1, 41.8, 29.3, 28.7, 32, 51.3, 28.5, 38.7, 22.2, 39.3, 27.5, 36.9, 29.5, 42.5%” in test [2] (runs of 1991); “inactive: 36 (2×), 30.6 (2×), 48.5, 55.2, 24, 43.1, 46.1 (2×), 30.2 (2×), 34.7, 35.2, 44.6, 47.9, 57.4, 53.9, 31.5, 21.8, 38 (3×), 43.7, 35.1, 53.7, 27.1 (2×), 42.3, 52, 55.5, 45.8, 51.7, 54.5, 41.8, 33.1 (2×), 44.9, 41.2, 40.6, 33.6 (2×), 33.4, 37.7, 33.7, 40.9, 40.2, 36.8, 42.8, 23.4, 35.9, 27.7, 32.8 (3×), 43, 34.3 (2×), 29.3 (2×), 34.5, 38.5, 56.2, 23.3 (2×), 23.7, 29.1 (3×), 26.5, 36.5, 51.5, 42.4, 19.6, 48.9, 47, 48.1, 36.9, 62, 48.7, 26.6, 27.8, 21.3, 45, 40.8, 38.3, 38.1, 34, 44.7 (2×), 29.7, 31.1, 29.8, 37.5, 26.8, 38.4, 35.7, 30.1, 30.5 (2×), 27.6, 47.8, 36.1, 32.7, 46.2, 20.9, 41, 42.1, 32.5, 36.2, 15.4, 42.9, 11.8, 31.7% and active: -2.76%, -0.274%, -1.47%” in test [2] (runs of 1992); “inactive: 43.9, 35.3 (2×), 10.6, 31.7 (3×), 40.4 (2×), 33.1 (2×), 39.7, 22.5, 27.4 (3×), 34.1 (2×), 26.9, 43.4, 44.1, 30, 40.5 (2×), 35, 41.2, 48.5, 37.4, 32.9, 42.8, 33, 35.6, 36.4, 39.6, 35.7, 29.1, 31.6, 37.9, 45.7, 45.2, 105, 43 (2×), 38.4, 89.5, 38.1, 34.6, 45.4, 35.8, 47.3, 23.7%” in test [2] (runs of 1993); “inactive: 45.9, 49.1, 45.3, 35.2, 28.4, 34.3, 20.1, 35.5, 59.4, 52.9, 39.8 (2×), 40.9, 52.6, 29.2, 58.1, 38.4, 43.1, 27.9, 36.7, 24.4, 43.2, 33.6, 17.3, 45.8, 45.2, 30.7, 13.6, 22.8, 58.7, 13, 27.4, 15.9%” in test [2] (runs of 1994); “inactive: 31.8, 27.2, 23.3, 22.2, 45.6, 29.8, 33, 45.2, 30.9, 35.7, 27.3, 26.8, 33.5, 30, 33.6, 36.1, 32.6, 24.3, 30.3, 33.2, 37, 12.4, 45.1, 35.2, 26.6, 31.2, 42.1, 35.5, 29.7, 44.3, 52.7, 32.1, 36, 30.7, 21.2% and active: -7.3, -14.4, 8.3, 6.08%” in test [2] (runs of 1995). Also, the growth entry was “inactive: 30 (2×), 40, 28.2, 33.4, 33.1, 24.8, 31.3, 30.3, 38.9, 25.8, 46.6, 40.8, 36, 34.4, 24.2, 23.8, 33.9, 26.5, 51.6, 14.5, 40.7, 42, 39.6, 31.4, 38.8 (2×), 26.6, 37.9, 39.8, 46.7, 48.8, 46.3, 22.6, 41.3, 32.4, 29.7, 31.9, 33.8, 20.8, 44.2, 45.8, 47.2, 37.6 (2×), 40.3, 42.1, 34.2, 17.4, 54.7, 32.8, 24, 32.7, 14.8, 48.6, 27.4% and active: -9.52%, 5.44%” in test [2] (runs of 1996); “inactive: 23.3, 28.6, 42.5, 92.3, 22.5, 26, 30.7, 38.6, 50.7 (3×), 34.9, 26.6, 47.1, 10.2, 43.8, 41.4, 39.2, 20.4, 46.9, 31.9, 41.3, 22.4, 39.7, 32.4, 32, 10.1, 47.5, 35.1, 40.4, 41.9, 23.8, 31.5, 30.9, 16.9, 35.3, 37.8, 27.1, 16.2% and active: 4.21, -19.3, 5.81, -22.9, 9.22%” in test [2] (runs of 1997); “inactive: 37.2, 30.3, 55.7, 15.6, 32.6, 33.6, 37.1, 31.9, 15.1, 23, 10.4, 32.5, 23.9, 24.1, 26.2, 52, 35, 47.1, 57.2, 20.2, 29.9, 27.3, 32.7, 41% and active: 7.28%, 1.43%” in test [2] (runs of 1998); “inactive: 32.8, 39.4, 34.7, 42.6, 34.9% and active: -45.4, -81.2, 4.53, 1.37, -20.2, 3.3, 4.52, 0.555, -34, 0.482, -100, 1.21%” in test [2] (runs of 1999); “active: 0.633, 2, 1.7, 0.626%” in test [2] (runs of 2000); “active: 5.36, 3.51, 9.03, 2.15% and inactive: 29.6, 31.1, 21.6, 27.1, 10.1, 15.4, 12.6, 32.6, 19.4, 13.8, 33.3, 21.5, 33, 22.9%” in test [3] (runs of 1991). In addition, the growth entry is “inactive: 23.4, 26.9, 24.4, 31.3, 19, 30.6, 24.7, 21.2, 27.9, 25.9, 41.4, 16.8, 20.4 (2×), 16.7, 31.6, 63.4, 11.2, 18.5 (3×), 15.5, 13.4, 34.8, 25.7 (3×), 16 (2×), 18.9, 22.8, 12.9, 35.5, 21.4, 14.2, 20, 16.5, 11.3, 26.5, 29.7, 19.4 (2×), 20.5, 16.9, 13, 10.6, 35, 29.3, 24.9, 24.5 (2×), 23.3 (2×), 37.9, 26.6 (2×), 29.9, 30.1, 19.8, 25.3, 22.4, 12.6, 23.5, 10.5, 17.5, 27.1 (2×), 11.7 (2×), 23.7 (2×), 25.5, 28.1, 22.7, 29, 13.6, 14.6, 21.7, 23.6, 20.6, 23, 16.1, 15.3, 30.4, 38.4, 18.3, 23.1, 26.8% and active: 4.13, 7.16, 9.09, -7.75, 5.52, -43.6, 9.83, -3.09, 9.84, 8.69, -5.07, 6.52, -12.7, -1.43, 2.35, 6.8, 1.05, -12.8, 3.8, 9.71, 1.57, -10, 8.98, 5.68, -4.67, 7.74, -4.11, 9.14, 6.31%” in test [3] (runs of 1992); “inactive: 11.5, 25.8, 25.6, 29.4, 26.9 (2×), 20.4, 86.3, 26.2, 34.4, 23.4, 18.3, 26.6, 32, 17.4, 19.6, 24.4, 16.1, 22, 23, 27.9, 33.6, 28, 11.7, 26.3 (2×), 13.4, 14.2, 16.8, 24.1 (3×), 32.7, 21.6, 98.3, 52.9, 25.7, 71.2, 33.2, 19.5, 23.5, 36, 23.3, 30.2, 31.8, 31.7% and active: 5.72%, 6.11%” in test [3] (runs of 1993); “inactive: 31.7, 13.7, 23.7, 22.2, 15.5, 26.3, 16.5, 24.1, 20.9, 20.8 (2×), 30.3, 24.5, 13.6, 23.6, 28.4, 24.8, 32.8, 14, 25.1, 24.7, 21.9, 24.6, 27.8, 34.1, 28.9, 28.1, 20.4, 28.8% and active: 3.11%, 5.68%” in test [3] (runs of 1994).
